Laboratory results taken from publication PMC6548130.
These are yes or no findings as the source states them, for the method shown. Binding seen in cells or lysates may run through a third protein. Some entries that bind do so weakly or less than the wild type.

Experiments:
Experiment in all cases: split reporter; BiFC with the two halves of Venus: pVC-SNF7 and pVN-ATGX cotransformed in yeast cells, expression induced in SD-Ura-His-Met for 1.5 h, starved in SD-N for 30 min, YFP dots seen by live-cell fluorescence microscopy; Atg17-Snf7 also tested in vps9Δ, vps21Δ, vps8Δ, pep12Δ, ypt7Δ and vps39Δ cells (dependent on the Rab5 module, not on Ypt7 or Vps39)
[1] = target: T1, VN-Atg13 (yeast) (UniProt Q06628)
T1 sequence: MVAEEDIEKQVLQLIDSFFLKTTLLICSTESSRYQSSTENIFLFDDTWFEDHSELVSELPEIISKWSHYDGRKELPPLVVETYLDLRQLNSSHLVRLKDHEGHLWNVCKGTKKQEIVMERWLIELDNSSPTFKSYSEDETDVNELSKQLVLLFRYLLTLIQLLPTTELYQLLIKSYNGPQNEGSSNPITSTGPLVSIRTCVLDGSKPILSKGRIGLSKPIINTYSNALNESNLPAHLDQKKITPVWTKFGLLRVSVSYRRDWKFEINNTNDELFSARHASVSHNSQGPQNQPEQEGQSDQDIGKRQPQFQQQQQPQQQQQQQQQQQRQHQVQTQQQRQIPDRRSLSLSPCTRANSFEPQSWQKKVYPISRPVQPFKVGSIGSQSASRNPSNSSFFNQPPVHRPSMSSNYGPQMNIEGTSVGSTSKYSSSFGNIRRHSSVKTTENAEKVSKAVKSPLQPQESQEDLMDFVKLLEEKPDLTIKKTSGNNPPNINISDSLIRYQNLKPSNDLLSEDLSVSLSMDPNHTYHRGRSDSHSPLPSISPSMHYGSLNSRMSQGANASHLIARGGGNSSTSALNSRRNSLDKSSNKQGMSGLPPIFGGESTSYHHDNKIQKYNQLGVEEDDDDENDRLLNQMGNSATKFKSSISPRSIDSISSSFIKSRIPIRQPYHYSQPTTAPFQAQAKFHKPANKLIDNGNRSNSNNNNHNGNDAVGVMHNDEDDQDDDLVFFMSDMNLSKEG

[2] = target: T2, VN-Atg1 (yeast) (UniProt P53104)
T2 sequence: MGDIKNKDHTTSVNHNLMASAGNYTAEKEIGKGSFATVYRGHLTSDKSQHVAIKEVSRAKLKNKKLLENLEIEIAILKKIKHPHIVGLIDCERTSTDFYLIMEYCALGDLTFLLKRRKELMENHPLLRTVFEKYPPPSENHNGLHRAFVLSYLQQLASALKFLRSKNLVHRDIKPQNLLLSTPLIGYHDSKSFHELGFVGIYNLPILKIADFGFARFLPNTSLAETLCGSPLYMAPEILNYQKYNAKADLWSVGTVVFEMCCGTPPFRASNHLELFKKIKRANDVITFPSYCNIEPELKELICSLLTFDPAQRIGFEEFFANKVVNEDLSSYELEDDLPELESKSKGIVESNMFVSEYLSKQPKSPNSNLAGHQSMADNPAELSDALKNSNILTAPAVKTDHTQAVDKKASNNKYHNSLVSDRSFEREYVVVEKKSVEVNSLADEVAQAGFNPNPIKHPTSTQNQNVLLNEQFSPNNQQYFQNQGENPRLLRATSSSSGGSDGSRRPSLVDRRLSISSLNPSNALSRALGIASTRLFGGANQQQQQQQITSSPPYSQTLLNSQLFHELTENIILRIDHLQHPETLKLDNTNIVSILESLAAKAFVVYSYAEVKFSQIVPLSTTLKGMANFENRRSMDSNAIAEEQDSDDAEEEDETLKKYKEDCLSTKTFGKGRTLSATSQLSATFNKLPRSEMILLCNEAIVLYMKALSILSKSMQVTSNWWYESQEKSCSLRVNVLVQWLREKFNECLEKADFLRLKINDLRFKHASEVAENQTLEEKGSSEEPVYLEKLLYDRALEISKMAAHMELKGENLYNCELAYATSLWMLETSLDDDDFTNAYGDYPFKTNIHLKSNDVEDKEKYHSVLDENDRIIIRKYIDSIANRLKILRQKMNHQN

[3] = target: T3, VN-Atg31 (yeast) (UniProt Q12421)
T3 sequence: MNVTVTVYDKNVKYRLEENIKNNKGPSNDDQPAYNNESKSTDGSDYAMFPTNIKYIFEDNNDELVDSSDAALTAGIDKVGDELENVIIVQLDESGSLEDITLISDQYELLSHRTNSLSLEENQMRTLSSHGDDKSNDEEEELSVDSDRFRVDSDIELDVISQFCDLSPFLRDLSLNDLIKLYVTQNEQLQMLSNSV

[4] = target: T4, VN-Atg29 (yeast) (UniProt Q12092)
T4 sequence: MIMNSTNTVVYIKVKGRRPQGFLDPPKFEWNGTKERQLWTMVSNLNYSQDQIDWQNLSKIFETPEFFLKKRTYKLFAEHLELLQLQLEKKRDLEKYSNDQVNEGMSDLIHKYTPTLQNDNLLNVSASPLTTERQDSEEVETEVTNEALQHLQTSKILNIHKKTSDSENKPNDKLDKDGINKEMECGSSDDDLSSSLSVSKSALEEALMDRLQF

B1: VC-Snf7 (protein, UniProt P39929 1-240)
chain: MWSSLFGWTSSNAKNKESPTKAIVRLREHINLLSKKQSHLRTQITNQENEARIFLTKGNKVMAKNALKKKKTIEQLLSKVEGTMESMEQQLFSIESANLNLETMRAMQEGAKAMKTIHSGLDIDKVDETMDEIREQVELGDEISDAISRPLITGANEVDEDELDEELDMLAQENANQETSKIVNNNVNAAPISENKVSLPSVPSNKIKQSENSVKDGEEEEDEEDEDEKALRELQAEMGL
For B1, which binding [1] is on record?
Its binding is “no binding”.

And the binding [2]?
The binding was “no binding”.

And the binding [3]?
The binding was “no binding”.

And the binding [4]?
Its binding is “binds weakly”.
